The whole screen tested about 52,000 compounds, of which about 1,700 (3.3%) were called active. No stated cut-off is given here; in the data, active means survival mostly below about 52% (no sharp cut-off); inactive means mostly above about 56%. This is one part of the list.

The test system of this assay is Wild type. The assay is described as follows: S. aureus survival, RN4220 and DeltatarO strains – OD600, teichoic acid synthesis inhibitors, primary screen (AID 463173). The settings on record: S. aureus RN4220 wild type/DeltatarO growth, OD600, 18 h, active compounds read low, screened at 18.75 µg/mL (by protocol).
Consider `CCc1ccc(CN(C(=O)c2nc(SC)ncc2Cl)C2CCS(=O)(=O)C2)cc1` (configuration not stated), for which the survival is inactive: 88%.

Turning to `CCC(=O)N1c2ccccc2CC1C(=O)N1CCN(c2ccccc2)CC1` (configuration not stated), the survival was inactive: 71%.

Turning to `CCN(C(=O)Cc1c(C(=O)O)[nH]c2ccccc12)c1ccc(OC)cc1`, the survival is inactive: 58%.

For `CCCC(=O)NCCc1ccc(F)cc1`, the survival is inactive: 116%.

With `CC(C)Cc1nn2c(=O)cc(COC(=O)c3ccc(NC(=O)c4cccs4)cc3)nc2s1`, the survival was inactive: 127%.

`CC(=O)c1ccc(N2CCN(C(=O)C3CCN(S(=O)(=O)c4cccc5nonc45)CC3)CC2)cc1`: the survival is inactive: 55%.

In the case of `CCOc1ccccc1NC(=O)Cn1c(=O)ccc2cc(S(=O)(=O)N3CCC(C)CC3)ccc21`, the survival is inactive: 65%.

On to `CCOC(=O)c1ccc(NC(=O)CCc2c(C)nc3c(c(C)nn3C)c2C)cc1`, for which the survival is inactive: 94%.

For the compound `COc1cc(C(Nc2ccc(S(=O)(=O)NCC3CCCO3)cc2)C(=O)NC(C)(C)C)cc(OC)c1OC` (configuration not stated), the survival was inactive: 105%.

As to `O=c1c2c3c(sc2nnn1Cc1ccc(Br)cc1)CCCC3`, the survival was inactive: 28%.

`O=S(=O)(NCCc1csc(-c2ccc(F)cc2)n1)c1ccc(Cl)cc1`: the survival was inactive: 85%.

Take `Cc1ccc(OCCCn2c(C3CC(=O)N(c4cccc(Cl)c4)C3)nc3ccccc32)c(C)c1` (configuration not stated): the survival was inactive: 90%.

In the case of `CCOC(=O)C1CCN(C(=O)C2COc3ccccc3C2)CC1` (configuration not stated), the survival was inactive: 68%.

For the compound `Cc1ccc(CN2CCSc3ccc(C(=O)N4CCN(c5cccc(C)c5C)CC4)cc32)cc1`, the survival was inactive: 17%.

With `O=C(CSc1nccn1Cc1ccc(Cl)cc1)NC1CCCC1`, the survival is inactive: 73%.

Regarding `COc1ccc(-c2cnc(C)o2)cc1S(=O)(=O)Nc1ccc(C)c(F)c1`, the survival was inactive: 60%.

As to `O=C(c1cc2ccccc2oc1=O)N(Cc1cccc(Cl)c1)C1CCS(=O)(=O)C1` (configuration not stated), the survival is inactive: 126%.

For the compound `COc1cccc(-n2ccnc2SCC(=O)Nc2cccc(C)c2C)c1`, the survival was inactive: 97%.

For the compound `O=C(CN1CCC(n2nnc3ccccc32)CC1)Nc1cccc(F)c1`, the survival was inactive: 106%.

With `CCCC(=O)NCC(c1ccc2c(c1)OCO2)N1CCN(c2ccc(F)cc2)CC1` (configuration not stated), the survival is inactive: 71%.

For the compound `CCc1ccc(NC(=O)Cn2cnc3sc(C)c(S(=O)(=O)N4CCC(C)CC4)c3c2=O)cc1`, the survival is inactive: 97%.

Take `Cc1sc2nc(CN(CCc3ccccc3)C(=O)c3ccco3)[nH]c(=O)c2c1C`: the survival is inactive: 100%.

As to `COc1ccc(-n2ncc(C(=O)NCc3ccccc3)c2C2CCN(C(=O)OC(C)(C)C)CC2)cc1`, the survival was inactive: 67%.

As to `COc1ccc(-c2nc3c(C#N)c[nH]n3c2NC2CCCCC2)c(OC)c1`, the survival is inactive: 78%.

In the case of `Cc1ccc(OCc2nc3ccccc3n2CC(C)C)cc1`, the survival was active: -1%.

For `COc1ccc(CCNC(=O)CCn2c(=O)c3cccn3c3ccc(F)cc32)c(OC)c1OC`, the survival was inactive: 54%.

As to `CCOc1ccccc1CNC(=O)Nc1cn(CC(C)C)c(=O)c2ccccc12`, the survival was inactive: 95%.

As for `Cc1cc2c(cc1S(=O)(=O)NCc1ccc(N(C)C)cc1)OCC(=O)N2`, the survival is inactive: 83%.

Take `CC(Oc1ccccc1)C(=O)Nc1nc2ccc(S(N)(=O)=O)cc2s1` (configuration not stated): the survival was inactive: 74%.

Consider `CC1(c2ccc(Cl)cc2)CC(C)(C)N(C(=O)c2ccccc2)c2ccccc21` (configuration not stated), for which the survival was active: -11%.

As for `Cc1ccc(CN2CCC(CNc3ncnc4onc(-c5ccc(Cl)cc5)c34)CC2)cc1`, the survival is inactive: 77%.

As for `COc1ccc(N(CC(=O)NC(C)c2ccccc2)S(=O)(=O)c2c(C)noc2C)cc1` (configuration not stated), the survival is inactive: 88%.

Turning to `CCCN(C(=O)c1cc2c(s1)-c1ccccc1SC2)c1ccccc1F`, the survival was active: 1%.

For `COc1cc(C2NC(=O)NC(C)=C2C(=O)Nc2cc(C)cc(C)c2)ccc1O` (configuration not stated), the survival was inactive: 69%.

As for `CCOC(=O)c1c(C)c(-c2ccccc2)n(CC(=O)Nc2cc(OC)cc(OC)c2)c1C`, the survival was inactive: 88%.

As for `CCOC(=O)c1noc2ncnc(N3CCN(c4ccccc4OC)CC3)c12`, the survival is inactive: 73%.

Turning to `CC(C(=O)O)c1n[nH]c(=O)c2ccccc12` (configuration not stated), the survival was inactive: 109%.

Turning to `COC(=O)CNC(=O)Nc1cc(C(=O)NCc2ccc(C)cc2)ccc1N1CCCC1`, the survival is inactive: 71%.

For `CC(C)(C)NS(=O)(=O)c1ccc2nc(NC(=O)c3cccnc3)sc2c1`, the survival is inactive: 75%.

As to `CCOC(=O)/C(C#N)=C\N1CCOCC1`, the survival is inactive: 107%.

In the case of `COC(=O)C1CCN(S(=O)(=O)c2cc3c4c(c2)C(C)C(=O)N4CCC3)CC1` (configuration not stated), the survival was inactive: 125%.

In the case of `CC(=O)N1c2ccccc2CC1C(=O)N1CCN(c2ccc(F)cc2)CC1` (configuration not stated), the survival was inactive: 132%.

On to `COc1ccc(C)cc1NC(=O)c1oc2ccc(S(=O)(=O)N(C)C3CCCCC3)cc2c1C`, for which the survival is inactive: 74%.

As to `Cc1ccc(Cn2c(SCC(=O)NCc3ccc(Cl)cc3)nc3ccsc3c2=O)cc1`, the survival was inactive: 128%.

Turning to `CCc1cc(C(=O)Nc2c(C)nn(Cc3ccc(C)cc3)c2C)no1`, the survival was inactive: 78%.

As for `CC(C)(C)c1cc(C(C)(C)C)c2oc(=O)c(-c3nc4ccccc4[nH]3)cc2c1`, the survival was inactive: 73%.

With `O=C(CSc1nc2ccccc2c2nc(-c3ccccc3)nn12)Nc1ccc(Br)cc1`, the survival was inactive: 70%.

Take `COCCCNC(=O)Cn1c(=O)n(-c2ccc(C)cc2)c(=O)c2c1c1cc(C)ccc1n2C`: the survival was inactive: 73%.

In the case of `COc1ccc2c(c1)CCN(Cc1cc3sccc3n1CC1CCCCC1)C2`, the survival was inactive: 108%.

With `CCS(=O)(=O)N1CC(=O)N(c2ccccc2C)C(C)(C(=O)NC2CCCCC2)C1` (configuration not stated), the survival was inactive: 82%.

Regarding `Cc1ccc(NC(=O)CN2CCCN(Cc3cc(C)ccc3C)S2(=O)=O)c(Cl)c1`, the survival is inactive: 55%.

Turning to `COc1cccc(N2CCN(C(=O)C3CCC(CNS(=O)(=O)c4ccc(Br)s4)CC3)CC2)c1` (configuration not stated), the survival was inactive: 71%.

As for `Cc1ccc(Cl)cc1N1CCN(C(=O)c2cn(C3CCCCC3)c(=O)c3c2c2ccccc2n3C)CC1`, the survival was inactive: 76%.

As for `CN(C)c1ccc(C(CNC(=O)COc2ccc(Cl)cc2)N2CCOCC2)cc1` (configuration not stated), the survival was inactive: 47%.

With `NC(=O)c1cc(S(=O)(=O)NCc2ccccc2)cs1`, the survival was inactive: 112%.

As for `CC(C)(C)NC(=O)CN1CCN(c2nc(-c3ccc(Cl)cc3)cs2)CC1`, the survival was inactive: 124%.

For `COc1cccc(-c2nc3c(c(SCc4ccccc4)n2)Cc2c(CO)cnc(C)c2O3)c1`, the survival was inactive: 101%.

These data come from PubChem BioAssay AID463173 (ICCB-Longwood Screening Facility, Harvard Medical School, 2010).
